The densities may have been worked out from excess volumes.
Test: xn = mol fraction of the nth substance listed
Conditions: 101 kPa

CN1CCCC1=O + CCCC[P+](C)(CCCC)CCCC.COS(=O)(=O)[O-]
mass density (293.15 K, x2 = 0): 1032.7 kg/m3
mass density (298.15 K, x2 = 0): 1025.8 kg/m3
mass density (303.15 K, x2 = 0): 1023.7 kg/m3
mass density (308.15 K, x2 = 0): 1019.3 kg/m3
mass density (313.15 K, x2 = 0): 1014.7 kg/m3
mass density (318.15 K, x2 = 0): 1010.2 kg/m3
mass density (323.15 K, x2 = 0): 1005.8 kg/m3

CCCC[P+](C)(CCCC)CCCC.COS(=O)(=O)[O-] + CN1CCCC1=O
mass density (293.15 K, x1 = 0.056): 1038.6 kg/m3
mass density (293.15 K, x1 = 0.0914): 1041.9 kg/m3
mass density (293.15 K, x1 = 0.1311): 1044.7 kg/m3
mass density (293.15 K, x1 = 0.1773): 1047.6 kg/m3
mass density (293.15 K, x1 = 0.2318): 1050.1 kg/m3
mass density (293.15 K, x1 = 0.2971): 1053.4 kg/m3
mass density (293.15 K, x1 = 0.3764): 1055.7 kg/m3
mass density (293.15 K, x1 = 0.4752): 1057.9 kg/m3
mass density (293.15 K, x1 = 0.6014): 1059.4 kg/m3
mass density (293.15 K, x1 = 0.7129): 1059.8 kg/m3
mass density (293.15 K, x1 = 0.8515): 1061.2 kg/m3
mass density (293.15 K, x1 = 0.9022): 1061.7 kg/m3
mass density (293.15 K, x1 = 0.9468): 1061.5 kg/m3
mass density (293.15 K, x1 = 1): 1061.7 kg/m3
mass density (298.15 K, x1 = 0.0914): 1039.2 kg/m3
mass density (298.15 K, x1 = 0.1311): 1043.4 kg/m3
mass density (298.15 K, x1 = 0.1773): 1046.8 kg/m3
mass density (298.15 K, x1 = 0.2318): 1050.1 kg/m3
mass density (298.15 K, x1 = 0.2971): 1052.8 kg/m3
mass density (298.15 K, x1 = 0.4752): 1056.2 kg/m3
mass density (298.15 K, x1 = 0.6014): 1057.2 kg/m3
mass density (298.15 K, x1 = 0.8515): 1058 kg/m3
mass density (298.15 K, x1 = 0.9022): 1058.1 kg/m3
mass density (298.15 K, x1 = 0.9468): 1058.4 kg/m3
mass density (303.15 K, x1 = 0.056): 1032.4 kg/m3
mass density (303.15 K, x1 = 0.1311): 1040.2 kg/m3
mass density (303.15 K, x1 = 0.3764): 1051.7 kg/m3
mass density (303.15 K, x1 = 0.4752): 1053 kg/m3
mass density (303.15 K, x1 = 0.6014): 1054 kg/m3
mass density (303.15 K, x1 = 0.7129): 1054.4 kg/m3
mass density (303.15 K, x1 = 0.8515): 1054.9 kg/m3
mass density (303.15 K, x1 = 1): 1055.6 kg/m3
mass density (308.15 K, x1 = 0.056): 1027.4 kg/m3
mass density (308.15 K, x1 = 0.0914): 1031.4 kg/m3
mass density (308.15 K, x1 = 0.1311): 1035.6 kg/m3
mass density (308.15 K, x1 = 0.1773): 1039 kg/m3
mass density (308.15 K, x1 = 0.2318): 1042.5 kg/m3
mass density (308.15 K, x1 = 0.2971): 1045.2 kg/m3
mass density (308.15 K, x1 = 0.3764): 1047.7 kg/m3
mass density (308.15 K, x1 = 0.4752): 1049 kg/m3
mass density (308.15 K, x1 = 0.6014): 1050 kg/m3
mass density (308.15 K, x1 = 0.7129): 1050.8 kg/m3
mass density (308.15 K, x1 = 0.8086): 1051.5 kg/m3
mass density (308.15 K, x1 = 0.8515): 1051.7 kg/m3
mass density (308.15 K, x1 = 0.9022): 1051.9 kg/m3
mass density (308.15 K, x1 = 0.9468): 1052.2 kg/m3
mass density (308.15 K, x1 = 1): 1052.5 kg/m3
mass density (313.15 K, x1 = 0.0914): 1026.8 kg/m3
mass density (313.15 K, x1 = 0.1311): 1031 kg/m3
mass density (313.15 K, x1 = 0.2318): 1037.9 kg/m3
mass density (313.15 K, x1 = 0.2971): 1041.1 kg/m3
mass density (313.15 K, x1 = 0.3764): 1043.7 kg/m3
mass density (313.15 K, x1 = 0.4752): 1045.3 kg/m3
mass density (313.15 K, x1 = 0.6014): 1046.5 kg/m3
mass density (313.15 K, x1 = 0.7129): 1047.5 kg/m3
mass density (313.15 K, x1 = 0.8086): 1048.2 kg/m3
mass density (313.15 K, x1 = 0.8515): 1048.5 kg/m3
mass density (313.15 K, x1 = 0.9022): 1048.7 kg/m3
mass density (313.15 K, x1 = 0.9468): 1049.1 kg/m3
mass density (313.15 K, x1 = 1): 1049.5 kg/m3
mass density (318.15 K, x1 = 0.056): 1018.5 kg/m3
mass density (318.15 K, x1 = 0.0914): 1022.5 kg/m3
mass density (318.15 K, x1 = 0.1311): 1026.3 kg/m3
mass density (318.15 K, x1 = 0.1773): 1029.9 kg/m3
mass density (318.15 K, x1 = 0.2971): 1036.6 kg/m3
mass density (318.15 K, x1 = 0.3764): 1039.7 kg/m3
mass density (318.15 K, x1 = 0.4752): 1041.4 kg/m3
mass density (318.15 K, x1 = 0.6014): 1042.9 kg/m3
mass density (318.15 K, x1 = 0.8515): 1045.3 kg/m3
mass density (318.15 K, x1 = 0.9022): 1045.5 kg/m3
mass density (318.15 K, x1 = 0.9468): 1045.9 kg/m3
mass density (318.15 K, x1 = 1): 1046.5 kg/m3
mass density (323.15 K, x1 = 0.056): 1013.9 kg/m3
mass density (323.15 K, x1 = 0.1311): 1021.6 kg/m3
mass density (323.15 K, x1 = 0.1773): 1025.1 kg/m3
mass density (323.15 K, x1 = 0.2318): 1028.7 kg/m3
mass density (323.15 K, x1 = 0.2971): 1032.2 kg/m3
mass density (323.15 K, x1 = 0.3764): 1035.5 kg/m3
mass density (323.15 K, x1 = 0.4752): 1037.7 kg/m3
mass density (323.15 K, x1 = 0.7129): 1040.7 kg/m3
mass density (323.15 K, x1 = 0.8086): 1041.7 kg/m3
mass density (323.15 K, x1 = 0.8515): 1042 kg/m3
mass density (323.15 K, x1 = 0.9022): 1042.4 kg/m3
mass density (323.15 K, x1 = 0.9468): 1042.8 kg/m3
mass density (323.15 K, x1 = 1): 1043.4 kg/m3

Reference: a compilation of properties of binary mixtures (doi:10.1016/j.molliq.2017.07.014)
